Laboratory results from article PMC4336329 (PLoS ONE, 2015).
In all, about 310,000 compounds went through this assay and about 14,000 (4.5%) showed an effect of 50% or more. The effect is printed as a negative number. This is one part of the list.

molecular target: human ether-à-go-go-related gene (hERG) potassium channel (human, UniProt Q12809); test: primary screen, population patch clamp on CHO cells stably expressing hERG
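Further: peak tail current of the secondary pulse compared with the same well before compound.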

Chain of human ether-à-go-go-related gene (hERG) potassium channel (Q12809 whole entry, looked up): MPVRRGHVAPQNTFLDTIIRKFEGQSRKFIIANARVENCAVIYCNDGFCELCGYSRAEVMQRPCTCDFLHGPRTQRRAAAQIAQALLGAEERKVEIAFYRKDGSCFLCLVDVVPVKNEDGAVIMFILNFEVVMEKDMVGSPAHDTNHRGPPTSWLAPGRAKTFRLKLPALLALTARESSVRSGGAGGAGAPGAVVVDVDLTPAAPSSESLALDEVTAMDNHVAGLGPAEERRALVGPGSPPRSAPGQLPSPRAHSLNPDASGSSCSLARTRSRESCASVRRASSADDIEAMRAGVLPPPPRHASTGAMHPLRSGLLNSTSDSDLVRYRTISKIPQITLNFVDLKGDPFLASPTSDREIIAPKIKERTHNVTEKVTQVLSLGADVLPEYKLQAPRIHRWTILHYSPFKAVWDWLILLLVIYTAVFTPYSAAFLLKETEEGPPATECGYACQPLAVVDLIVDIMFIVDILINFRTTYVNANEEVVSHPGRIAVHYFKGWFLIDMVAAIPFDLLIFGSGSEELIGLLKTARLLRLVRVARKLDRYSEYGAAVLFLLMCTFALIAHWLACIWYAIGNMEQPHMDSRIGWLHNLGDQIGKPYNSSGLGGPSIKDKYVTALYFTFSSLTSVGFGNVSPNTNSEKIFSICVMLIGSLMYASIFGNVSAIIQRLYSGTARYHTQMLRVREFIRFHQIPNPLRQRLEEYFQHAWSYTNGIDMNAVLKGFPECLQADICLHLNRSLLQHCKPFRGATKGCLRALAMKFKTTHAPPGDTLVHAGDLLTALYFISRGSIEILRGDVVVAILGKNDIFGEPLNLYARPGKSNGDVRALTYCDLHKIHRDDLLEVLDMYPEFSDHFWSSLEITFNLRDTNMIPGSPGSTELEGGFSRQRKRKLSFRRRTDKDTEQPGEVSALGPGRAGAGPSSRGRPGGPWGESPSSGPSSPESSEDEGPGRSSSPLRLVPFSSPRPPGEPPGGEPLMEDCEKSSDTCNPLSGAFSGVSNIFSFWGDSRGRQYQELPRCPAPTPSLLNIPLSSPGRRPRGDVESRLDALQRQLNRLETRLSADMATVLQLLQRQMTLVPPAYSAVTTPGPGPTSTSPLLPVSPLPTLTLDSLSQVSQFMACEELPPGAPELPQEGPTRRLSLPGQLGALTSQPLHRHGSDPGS

Going from Cc1ccc(S(=O)(=O)Nc2ccc3oc(=O)sc3c2)c(C)c1 to Cc1cccc(OCC(=O)Nc2ccc3c(c2)C(=O)NC3=O)c1, the “hERG current change (%, negative = inhibition) at 10uM” value rises from -11.1% to -5.56%.

Going from CCN(CC)C(=O)c1ccccc1NS(=O)(=O)c1cccs1 to CCc1cc(C(=O)NNC(=S)NCc2ccccc2)cs1, the “hERG current change (%, negative = inhibition) at 10uM” value falls from 0.00858% to -6.47%.

First: Cc1sc2ncn3cnnc3c2c1C
Second: CC(=O)N(c1nc(CCl)cs1)c1cccc(C)c1C
The “hERG current change (%, negative = inhibition) at 10uM” value of the first is lower: -1.29% for the first, 10.8% for the second.

Going from CCc1cc(=O)oc2c(C)c(OC(C)C(=O)N3CC[C@@]4(O)CCCC[C@H]4C3)ccc12 (some centres unmarked) to O=C1Nc2cc(C(=O)N3CCC4(CC3)OCCO4)ccc2NC1CSCc1cccc(F)c1 (centres unmarked), the “hERG current change (%, negative = inhibition) at 10uM” value rises from -3.21% to 2.89%.

First: Cc1ccc(NC(=O)CSc2nc(-c3ccco3)nc3cc(=O)[nH]n23)c(Cl)c1
Second: Cc1ccc(NC(=O)Cc2nnc(SCC(=O)Nc3ccccc3)n2C)cc1
The “hERG current change (%, negative = inhibition) at 10uM” value of the first is higher: 11.9% for the first, 7.11% for the second.

First: COCCn1c(C(C)C)nc2ccccc21
Second: COc1cccc(-c2nc(NC(C)(C)C)c3ccccc3n2)c1O
The “hERG current change (%, negative = inhibition) at 10uM” value of the first is higher: 4.45% for the first, 2.89% for the second.

Compared with O=C(Nc1ccc(F)cc1)N1CC2CC(C1)c1cccc(=O)n1C2 (centres unmarked), O=C(NCCc1ccccc1F)C1CCC(=O)N(Cc2ccc(Cl)cc2)C1 (centres unmarked) is lower in “hERG current change (%, negative = inhibition) at 10uM” value: 24.3% for the first, -32.5% for the second.

Going from N#CC1c2ccccc2C=CN1C(=O)c1ccccc1 (centres unmarked) to CC(C)(C)c1ccccc1OCC(=O)NCc1ccccc1, the “hERG current change (%, negative = inhibition) at 10uM” value rises from -18.7% to 10.5%.

Going from CCOc1ccccc1N1CCN(C(=O)c2ccc3c(c2)OCO3)CC1 to COc1ccc(S(=O)(=O)Oc2ccccc2C(=S)N2CCOCC2)cc1, the “hERG current change (%, negative = inhibition) at 10uM” value rises from -7.22% to 9.91%.

Compared with Cc1cc(C)nc(N2CCN(C(=O)CCC(=O)Nc3nnc(C(C)C)s3)CC2)n1, CCCCNC(=O)N1CCN(Cc2cccc(F)c2)CC1 is lower in “hERG current change (%, negative = inhibition) at 10uM” value: 6.81% for the first, 4.88% for the second.

First: Cc1ccc(-c2nc(NCCCO)c3ccccc3n2)cc1
Second: Cc1ccc2[nH]c(-c3ccccc3)cc(=O)c2c1
The “hERG current change (%, negative = inhibition) at 10uM” value of the first is lower: -41.2% for the first, 4.98% for the second.

Compared with O=C1NC(Cc2c[nH]c3ccccc23)C(=O)N1Cc1ccccc1 (centres unmarked), Cc1ccnc(NC(=O)CCC(=O)N(CC(=O)NCc2ccccc2)Cc2ccco2)c1 is lower in “hERG current change (%, negative = inhibition) at 10uM” value: 6.2% for the first, -15.6% for the second.

First: CC(NC(=O)c1ccco1)c1nc(-c2ccccc2)no1 (centres unmarked)
Second: OCC[C@H]1C[C@@H](O)[C@H](O)[C@@]2(Cc3ccccc3CCO2)O1
The “hERG current change (%, negative = inhibition) at 10uM” value of the first is higher: 13% for the first, 7.01% for the second.
